Some of these densities may be calculated back from excess volumes.
Assay: xn = mol fraction of the nth substance listed
Settings: 101 kPa

Cn1cc[n+](CCCN)c1.F[B-](F)(F)F + CS(C)=O
mass density [kg/m3]
Settings	x1 = 0.1003	x1 = 0.2	x1 = 0.2997	x1 = 0.3997	x1 = 0.4998	x1 = 0.5999	x1 = 0.7001	x1 = 0.8109	x1 = 0.8998	x1 = 1
288.15 K	1180.1	1230.1	1264.3	1290	1308.6	1322.6	1334.5	1345.6	1353.5	1361.9
293.15 K	1175.6	1226	–	–	1304.3	–	1330.6	1341.7	–	1358
298.15 K	–	1221.4	1256	1281.4	1300.1	1314.3	1326.5	1337.8	1345.6	–
303.15 K	1166.7	1217.1	–	1277.3	1296	1310.2	–	–	–	1349.7
308.15 K	1162.1	1212.6	1247.2	1272.8	1291.7	1306.3	1318.8	–	1337.8	–
313.15 K	–	1208	1243	1268.5	1287.6	–	1314.8	–	1334	1341.6
318.15 K	1153.2	1203.7	1238.5	–	1283.4	1298.3	–	1322.4	1330.1	1337.6
323.15 K	1148.5	1199.1	1234.2	1259.7	–	1294.4	1307.1	1318.6	1326.2	–
328.15 K	–	–	1229.8	–	1275	1290.4	1303.2	1314.7	1322.4	1329.4
333.15 K	1140	1190.1	–	1250.9	1270.6	1286.3	1299.3	1310.7	1318.3	1325.4
338.15 K	1135.4	1186	1221	–	1266.7	1282.4	1295.5	–	1314.6	–
343.15 K	–	1181.8	1216.7	1242.4	1262.4	–	1291.6	1303.1	1310.7	1317.3
348.15 K	1126.5	1177.1	1212.3	1238.1	1258.3	1274.5	1287.7	1299.4	1306.9	1313.3
353.15 K	1122.2	1172.8	1207.9	–	1254.3	1270.6	1283.9	1295.8	1302.3	1309.2

CS(C)=O + Cn1cc[n+](CCCN)c1.F[B-](F)(F)F
x2 = 0
Settings	mass density [kg/m3]
288.15 K	1105.7
293.15 K	1100.8
298.15 K	1095.7
303.15 K	1090.9
308.15 K	1085.8
313.15 K	1080.7
318.15 K	1075.5
323.15 K	1070.7
333.15 K	1060.6
338.15 K	1055.5
343.15 K	1050.6
348.15 K	1045.6
353.15 K	1040.5

From a compilation of properties of binary mixtures (doi:10.1007/s10953-023-01258-3)
